# Assay results from the supplement of paper PMC9334596.
# Several values for one entry are separate records, joined by “and”; a condition that tells them apart may be missing. Identical values can stand only once. Whole data set: some 5,300 compounds, median “PER2::LUC luminescence relative to vehicle control” near 0.96, cut for the highest 2% near 1.3. The list shows a part of the results.
# Tested on: mPer2Luc MEF
# Test: PER2::LUC luminescence relative to vehicle control (fold of vehicle); higher = higher PER2::LUC reporter signal
# Conditions: 10 µM
# Procedure, shortened: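 The reported values are PER2::LUC luminescence as fold of vehicle control in mouse embryonic fibroblasts carrying the mPer2Luc reporter. Cells were seeded at ~3000 per well in 384-well plates in DMEM with 10% FBS at 37 °C and 5% CO2, and compounds were added at 10 μM 48 h later. ONE-Glo luminescence was read 24 h and 30 h after treatment.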
Compound,PER2::LUC luminescence (time after treatment 24 h),PER2::LUC luminescence (time after treatment 30 h)
CCc1cccc(N(C)C(=N)Nc2cccc3ccccc23)c1,0.746,0.808
Nc1nc(F)nc2c1ncn2[C@@H]1O[C@H](CO)[C@@H](O)[C@@H]1O,0.688,0.502
CC1(C)CCC[C@](C)([C@H]2CC[C@]3(C)[C@@H]2[C@H](O)C[C@@H]2[C@@]4(C)CC[C@H](O)C(C)(C)[C@@H]4[C@@H](O)C[C@]23C)O1,0.965,0.95
CSc1ccccc1NC(C)=O,0.972,0.93
O=C1CN2Cc3c(ccc(Cl)c3Cl)N=C2N1,1.2,1.17
COc1ccc(C2=N[C@@H](c3ccc(Cl)cc3)[C@@H](c3ccc(Cl)cc3)N2C(=O)N2CCNC(=O)C2)c(OC(C)C)c1 (racemic),0.971 and 1.06 and 0.903,0.948 and 0.818 and 0.649
CC(N)(C(=O)O)c1ccc(C(=O)O)cc1 (racemic),0.971,0.694
CC(C)NCC(O)COc1ccc(COCCOC(C)C)cc1 (stereo not given),1.04 and 0.945,1.04 and 1.01
CN(C)Cc1c(C(=O)NCCOc2ccc(C(=O)NO)cc2)oc2ccccc12,0.288,0.586
COc1ccc(-c2cc(=O)c3c(O)cc(O)cc3o2)cc1O,0.933,1.03
COc1cc(S(=O)(=O)O)ccc1O,1.1,0.889
CC(=O)OC[C@@]1(O)C[C@@]23CC[C@@H]4c5ccoc5CC[C@@]4(C)[C@@H]2CC[C@@H]1C3,1.05,1.06
CN1CC[C@H](c2c(O)cc(O)c3c(=O)cc(-c4ccccc4Cl)oc23)[C@H](O)C1,0.967,0.942
CC(N)=O,1.03,1.1
COc1cc2c(cc1CC=C(C)C)C(=O)C[C@@H](c1ccc(O)cc1)O2,0.899,0.955
Nc1nc(Cl)nc2c1ncn2[C@@H]1O[C@H](CO)[C@@H](O)[C@@H]1F,0.453,0.367
COc1cc2ccc(=O)oc2c(OC)c1OC,0.926,0.926
C[C@@H](N)[C@H]1CC[C@H](C(=O)Nc2ccncc2)CC1,1.04 and 1.16,1.04 and 1.27
c1cnc2cc3c(cc2n1)[C@@H]1CNC[C@H]3C1,0.967,1.01
NC[C@H]1O[C@@H](n2cnc3c(N)ncnc32)[C@H](O)[C@@H]1O,0.981,0.975
CCCCCN(CCCOC)C(=O)C(CCC(=O)O)NC(=O)c1ccc(Cl)c(Cl)c1 (stereo not given),1.01,0.935
COC(=O)CC1CC(c2ccc(O)cc2)=NO1 (stereo not given),1.51,1.75
CC(=O)NN(Cc1ccc(N)cc1)c1ncnc2c1ncn2[C@@H]1O[C@H](CO)[C@@H](O)[C@H]1O,1.03,0.913
Cc1ccccc1N=C(N)Nc1ccccc1C,1.04,0.961
CC(=O)OCC(COC(C)=O)OC(C)=O,0.917,1.16
O=c1cc(-c2ccc(O)cc2)oc2cc(O)cc(O)c12,0.595,0.545
CO[C@H]1/C=C/O[C@@]2(C)Oc3c(C)c(O)c4c(c3C2=O)C2=NC3(CCN(CC(C)C)CC3)NC2=C(NC(=O)/C(C)=C\C=C\[C@H](C)[C@H](O)[C@@H](C)[C@@H](O)[C@@H](C)[C@H](OC(C)=O)[C@@H]1C)C4=O,0.55,0.643
CCOc1cccc(C(=O)c2ccc(O)c(O)c2O)c1,1.23,1.37

Compound,PER2::LUC luminescence (time after treatment 24 h),PER2::LUC luminescence (time after treatment 30 h)
CCN(CC)C(=O)[C@@]1(c2ccccc2)C[C@H]1CN,0.96,0.98
NCCC[C@H](N)C(=O)O,1.04 and 1.03,1.01 and 0.936
CO[C@@H]1[C@@H](O[C@@H]2O[C@H](C)[C@@H](O[C@H]3C[C@@](C)(O)[C@@H](O)[C@H](C)O3)[C@H](N(C)C)[C@H]2O)[C@@H](CC=O)C[C@@H](C)[C@@H](O[C@H]2CC[C@H](N(C)C)[C@@H](C)O2)/C=C/C=C/C[C@@H](C)OC(=O)C[C@H]1OC(C)=O,0.784,0.682
N#Cc1ccccc1OCC(O)CNCCNC(=O)Nc1ccccc1 (stereo not given),1.04,0.956
CNc1nc(Nc2cnn([C@H]3CCN(C4COC4)C[C@@H]3F)c2Cl)ncc1C(F)(F)F,0.862,0.769
NC(=O)N1c2ccccc2C=Cc2ccccc21,0.93,0.789
CCOC(=O)C1=C(C)NC(C)=C(C(=O)OCC)C1c1c(F)c(F)c(F)c(F)c1F,1.17,1.26
COc1cccc(CNC(=O)Nc2nc(-c3ccncc3)cs2)c1,0.558,0.601
CC[C@@H](C)[C@@H](O)[C@H](C)C(=O)[C@H](C)/C=C(\C)C[C@H](C)[C@@H]1OC(=O)[C@H]1CC,1.06,0.925
CN(C)CCN(Cc1cccs1)c1ccccn1,0.514,0.964
O=C(CCCCCCNC(=O)c1cnc(N(c2ccccc2)c2ccccc2)nc1)NO,0.219 and 0.206,0.487 and 0.431
O=c1ncccn1[C@@H]1O[C@H](CO)[C@@H](O)[C@H]1O,0.999,1.07
NC(CO)(CO)CO,1.09,1.21
Clc1cccc(COc2cncc(N3CCNCC3)n2)c1,0.246,0.301
COc1ccc([C@H]2COc3c(ccc(O)c3OC)C2)c(OC)c1O,1.08,0.987
COc1ccc2c(c1)OCc1c-2oc2cc(OC)ccc12,1.52,1.8
N=C1Sc2ccccc2C2=NCCCN12,0.898,0.971
O=C(NCc1ccccc1)OCCO,0.967,1.06
COc1ccc(C(=O)CC2(O)C(=O)Nc3c(Cl)ccc(Cl)c32)cc1 (stereo not given),0.483,0.461
CCC(=O)N1CCN(C(=O)c2ccccc2)CC1,0.96,0.875
OC[C@H]1O[C@H]([S-])[C@H](O)[C@@H](O)[C@@H]1O.[Au+],0.943,0.96
CC(C)(C)Cn1c(N)nc2ccc(-c3[nH]c(C(C)(C)C)nc3-c3ccc(F)cc3)nc21,0.886,1.09
CCCN[C@H]1CCc2nc(N)sc2C1,1.05 and 0.983 and 0.909,0.913 and 0.95 and 0.782
CCOC(=O)c1ccc(OC(=O)CCCCCNC(=N)N)cc1,0.768,0.911
COc1cccc(-c2ccc(NC(=O)C3=C(C(=O)O)CCC3)c(F)c2)c1,1.43,1.75
Cc1nc2ccccc2n1Cc1ccc(Cl)cc1,0.361,0.307
CC(C)C[C@H](NC(=O)[C@@H](COC(C)(C)C)NC(=O)[C@H](Cc1ccc(O)cc1)NC(=O)[C@H](CO)NC(=O)[C@H](Cc1c[nH]c2ccccc12)NC(=O)[C@H](Cc1cnc[nH]1)NC(=O)[C@@H]1CCC(=O)N1)C(=O)N[C@@H](CCCNC(=N)N)C(=O)N1CCC[C@H]1C(=O)NNC(N)=O,1.03,1.03
